From the supplement of paper PMC4967469

The cell lines below were run with Cn1cc(C2=C(c3cn(C4CCN(Cc5ccccn5)CC4)c4ccccc34)C(=O)NC2=O)c2ccccc21 [LY317615] (assay: Viability of human cancer cell lines after 72 h of drug (GDSC screen)). Settings: top dose inferred.
Experimental: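 Human cancer cell lines in 384-well plates, medium with 10% serum, drug for 72 h over a 256-fold dose range (nine 2-fold or five 4-fold steps up to the top dose). Adherent lines were fixed and stained with the nucleic acid dye Syto60, suspension lines read with resazurin; signal relative to control wells, capped at 0 and 100%. One two-parameter sigmoid per drug and line, fitted in a mixed model over all curves with the slope shared within a line.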
“KMS-12-BM (myeloma, suspension, top dose 20 µM)” was tested, and the AUC was 0.854 and the IC50 was 11.7 µM. With “YAPC (pancreas, adherent, top dose 20 µM)” the AUC was 0.891 and the IC50 was greater than 20 µM. “SK-MEL-2 (melanoma, adherent, top dose 20 µM)” gave an AUC of 0.799 and an IC50 of 9.99 µM. Work on “KINGS-1 (glioma, adherent, top dose 20 µM)” yielded an AUC of 0.945 and an IC50 greater than 20 µM. In the case of “SF268 (glioma, adherent, top dose 20 µM)”, the AUC is reported as 0.947 and the IC50 is reported as greater than 20 µM. Cell Line “SW684 (fibrosarcoma, adherent, top dose 20 µM)” has an AUC of 0.982 and an IC50 greater than 20 µM. For “BHT-101 (thyroid, adherent, top dose 20 µM)”, the AUC was 0.98 and the IC50 was greater than 20 µM. In the case of JHH-2 (liver, adherent, top dose 20 µM), the AUC is reported as 0.983 and the IC50 is reported as greater than 20 µM. Work on “NCI-H2030 (lung adenocarcinoma, adherent, top dose 20 µM)” yielded an AUC of 0.511 and an IC50 of 1.35 µM. In the case of “KE-37 (lymphoblastic leukaemia, suspension, top dose 20 µM)”, the AUC is reported as 0.491 and the IC50 is reported as 1.19 µM. “CL-11 (large intestine, adherent, top dose 20 µM)” gave an AUC of 0.987 and an IC50 greater than 20 µM. “RH-41 (rhabdomyosarcoma, adherent, top dose 20 µM)” showed an AUC of 0.955 and an IC50 greater than 20 µM. In the case of “SNU-175 (large intestine, suspension, top dose 20 µM)”, the AUC is reported as 0.677 and the IC50 is reported as 3.76 µM. Work on “OMC-1 (cervix, adherent, top dose 20 µM)” yielded an AUC of 0.968 and an IC50 greater than 20 µM. In the case of “WM793B (melanoma, adherent, top dose 20 µM)”, the AUC is reported as 0.785 and the IC50 is reported as 9.59 µM. Cell Line GB-1 (glioma, adherent, top dose 20 µM) has an AUC of 0.979 and an IC50 greater than 20 µM. Work on “CFPAC-1 (pancreas, adherent, top dose 20 µM)” yielded an AUC of 0.722 and an IC50 of 5.91 µM. Cell Line “YH-13 (glioma, adherent, top dose 20 µM)” has an AUC of 0.719 and an IC50 of 5.44 µM. In the case of “RPMI-8226 (myeloma, suspension, top dose 20 µM)”, the AUC is reported as 0.882 and the IC50 is reported as 16.4 µM. In the case of “REH (B-cell leukaemia, suspension, top dose 20 µM)”, the AUC is reported as 0.67 and the IC50 is reported as 3.65 µM. With “SK-MM-2 (myeloma, suspension, top dose 20 µM)” the AUC was 0.781 and the IC50 was 8.68 µM. With “STS-0421 (soft tissue, adherent, top dose 20 µM)” the AUC was 0.917 and the IC50 was greater than 20 µM. Work on “SK-MEL-1 (melanoma, suspension, top dose 20 µM)” yielded an AUC of 0.975 and an IC50 greater than 20 µM. In the case of “MOLP-8 (myeloma, suspension, top dose 20 µM)”, the AUC is reported as 0.668 and the IC50 is reported as 3.6 µM. Work on “SW1417 (large intestine, adherent, top dose 20 µM)” yielded an AUC of 0.854 and an IC50 greater than 20 µM. “8505C (thyroid, adherent, top dose 20 µM)” showed an AUC of 0.908 and an IC50 greater than 20 µM. With “Hs746T (stomach, adherent, top dose 20 µM)” the AUC was 0.975 and the IC50 was greater than 20 µM. “NCI-H1623 (lung adenocarcinoma, adherent, top dose 20 µM)” showed an AUC of 0.97 and an IC50 greater than 20 µM. Work on “KMS-11 (myeloma, suspension, top dose 20 µM)” yielded an AUC of 0.76 and an IC50 of 6.13 µM. Cell Line “IMR-5 (neuroblastoma, adherent, top dose 20 µM)” has an AUC of 0.91 and an IC50 greater than 20 µM. Cell Line “H2369 (mesothelioma, adherent, top dose 20 µM)” has an AUC of 0.968 and an IC50 greater than 20 µM. With “HuO9 (osteosarcoma, adherent, top dose 20 µM)” the AUC was 0.857 and the IC50 was 19.2 µM. Work on “LoVo (large intestine, adherent, top dose 20 µM)” yielded an AUC of 0.987 and an IC50 greater than 20 µM. “BL-41 (Burkitt lymphoma, suspension, top dose 20 µM)” showed an AUC of 0.779 and an IC50 of 6.24 µM. Cell Line “639-V (bladder, adherent, top dose 20 µM)” has an AUC of 0.989 and an IC50 greater than 20 µM. “EBC-1 (lung squamous cell carcinoma, adherent, top dose 20 µM)” showed an AUC of 0.92 and an IC50 greater than 20 µM. “BFTC-909 (kidney, adherent, top dose 20 µM)” showed an AUC of 0.974 and an IC50 greater than 20 µM. With “KYAE-1 (oesophagus, suspension, top dose 20 µM)” the AUC was 0.412 and the IC50 was 0.697 µM. “HCC70 (breast, adherent, top dose 20 µM)” gave an AUC of 0.929 and an IC50 greater than 20 µM. Cell Line “MFE-296 (endometrium, adherent, top dose 20 µM)” has an AUC of 0.983 and an IC50 greater than 20 µM. With “OPM-2 (myeloma, suspension, top dose 20 µM)” the AUC was 0.796 and the IC50 was 7.49 µM. For “SW1710 (bladder, adherent, top dose 20 µM)”, the AUC was 0.86 and the IC50 was 17.6 µM. For “HCC-56 (large intestine, adherent, top dose 20 µM)”, the AUC was 0.695 and the IC50 was 4.47 µM. In the case of “HT55 (large intestine, adherent, top dose 20 µM)”, the AUC is reported as 0.989 and the IC50 is reported as greater than 20 µM. In the case of “COR-L311 (small cell lung carcinoma, suspension, top dose 20 µM)”, the AUC is reported as 0.782 and the IC50 is reported as 8.98 µM. With “SW1573 (lung adenocarcinoma, adherent, top dose 20 µM)” the AUC was 0.935 and the IC50 was greater than 20 µM. Cell Line “Detroit562 (head and neck, adherent, top dose 20 µM)” has an AUC of 0.89 and an IC50 greater than 20 µM. Work on “NCI-H2135 (non-small cell lung carcinoma, adherent, top dose 20 µM)” yielded an AUC of 0.945 and an IC50 greater than 20 µM. “769-P (kidney, adherent, top dose 20 µM)” gave an AUC of 0.366 and an IC50 of 0.515 µM. In the case of “EoL-1-cell (haematopoietic neoplasm, suspension, top dose 20 µM)”, the AUC is reported as 0.819 and the IC50 is reported as 9.67 µM. KS-1 (glioma, adherent, top dose 20 µM) was tested, and the AUC was 0.641 and the IC50 was 3.4 µM. With “HPAC (pancreas, adherent, top dose 20 µM)” the AUC was 0.872 and the IC50 was greater than 20 µM. In the case of “OAW-28 (ovary, adherent, top dose 20 µM)”, the AUC is reported as 0.725 and the IC50 is reported as 6.55 µM. “HCC-827 (lung adenocarcinoma, adherent, top dose 20 µM)” showed an AUC of 0.967 and an IC50 greater than 20 µM. “Ca9-22 (head and neck, adherent, top dose 20 µM)” was tested, and the AUC was 0.971 and the IC50 was greater than 20 µM. Cell Line “EB2 (Burkitt lymphoma, suspension, top dose 20 µM)” has an AUC of 0.59 and an IC50 of 2.14 µM. Work on “ST486 (Burkitt lymphoma, suspension, top dose 20 µM)” yielded an AUC of 0.508 and an IC50 of 1.31 µM. For “OCI-AML3 (acute myeloid leukaemia, suspension, top dose 20 µM)”, the AUC was 0.799 and the IC50 was 8.06 µM. Work on “NCI-H1573 (lung adenocarcinoma, adherent, top dose 20 µM)” yielded an AUC of 0.817 and an IC50 of 10.8 µM. Cell Line “T-T (oesophagus, adherent, top dose 20 µM)” has an AUC of 0.979 and an IC50 greater than 20 µM. In the case of “BEN (non-small cell lung carcinoma, adherent, top dose 20 µM)”, the AUC is reported as 0.984 and the IC50 is reported as greater than 20 µM. “COLO-800 (melanoma, adherent, top dose 20 µM)” gave an AUC of 0.962 and an IC50 greater than 20 µM. “SNU-81 (large intestine, adherent, top dose 20 µM)” showed an AUC of 0.91 and an IC50 greater than 20 µM. “8305C (thyroid, adherent, top dose 20 µM)” showed an AUC of 0.98 and an IC50 greater than 20 µM. With “NCI-H1355 (lung adenocarcinoma, adherent, top dose 20 µM)” the AUC was 0.861 and the IC50 was greater than 20 µM. Work on “SKN-3 (head and neck, adherent, top dose 20 µM)” yielded an AUC of 0.983 and an IC50 greater than 20 µM. “LC-2-ad (lung adenocarcinoma, adherent, top dose 20 µM)” showed an AUC of 0.633 and an IC50 of 2.93 µM. With “NTERA-2 cl.D1 (testis, adherent, top dose 20 µM)” the AUC was 0.879 and the IC50 was greater than 20 µM. “LN-229 (glioma, adherent, top dose 20 µM)” showed an AUC of 0.953 and an IC50 greater than 20 µM. For “HCC1419 (breast, adherent, top dose 20 µM)”, the AUC was 0.817 and the IC50 was 17.8 µM. With “NU-DUL-1 (B-cell lymphoma, suspension, top dose 20 µM)” the AUC was 0.883 and the IC50 was 14.2 µM. OVMIU (ovary, adherent, top dose 20 µM) was tested, and the AUC was 0.669 and the IC50 was 4.17 µM. Cell Line “TALL-1 (T-cell lymphoblastic leukaemia, suspension, top dose 20 µM)” has an AUC of 0.711 and an IC50 of 4.76 µM. “CESS (acute myeloid leukaemia, suspension, top dose 20 µM)” showed an AUC of 0.859 and an IC50 of 12.9 µM. For “EFO-21 (ovary, adherent, top dose 20 µM)”, the AUC was 0.681 and the IC50 was 5.03 µM. With “BE-13 (lymphoblastic leukaemia, suspension, top dose 20 µM)” the AUC was 0.554 and the IC50 was 1.74 µM. “M14 (melanoma, adherent, top dose 20 µM)” showed an AUC of 0.952 and an IC50 greater than 20 µM. In the case of “H2722 (mesothelioma, adherent, top dose 20 µM)”, the AUC is reported as 0.984 and the IC50 is reported as greater than 20 µM. “MIA-PaCa-2 (pancreas, adherent, top dose 20 µM)” showed an AUC of 0.958 and an IC50 greater than 20 µM. For “DEL (lymphoid neoplasm, suspension, top dose 20 µM)”, the AUC was 0.847 and the IC50 was 10.3 µM. “OV-17R (ovary, adherent, top dose 20 µM)” gave an AUC of 0.751 and an IC50 of 9.03 µM. “RT-112 (bladder, adherent, top dose 20 µM)” showed an AUC of 0.918 and an IC50 greater than 20 µM.

Lines with a small IC50 respond at low doses; fits outside the tested doses are given as limits. AUC sums up the same curve from the lowest dose to the 256-fold higher top dose: 1 means no effect, lower means more sensitive. A top dose marked as inferred was calculated from the reported fits.
